Assay results from the supplement of paper PMC3334620.
Over roughly 33,000 sequences, “E-score (-0.5 to 0.5)” has its median near -0.035; the highest 2% begin near 0.35. This is one part of the list.

Target: T1, Pdr3 (UniProt P33200)
T1 sequence: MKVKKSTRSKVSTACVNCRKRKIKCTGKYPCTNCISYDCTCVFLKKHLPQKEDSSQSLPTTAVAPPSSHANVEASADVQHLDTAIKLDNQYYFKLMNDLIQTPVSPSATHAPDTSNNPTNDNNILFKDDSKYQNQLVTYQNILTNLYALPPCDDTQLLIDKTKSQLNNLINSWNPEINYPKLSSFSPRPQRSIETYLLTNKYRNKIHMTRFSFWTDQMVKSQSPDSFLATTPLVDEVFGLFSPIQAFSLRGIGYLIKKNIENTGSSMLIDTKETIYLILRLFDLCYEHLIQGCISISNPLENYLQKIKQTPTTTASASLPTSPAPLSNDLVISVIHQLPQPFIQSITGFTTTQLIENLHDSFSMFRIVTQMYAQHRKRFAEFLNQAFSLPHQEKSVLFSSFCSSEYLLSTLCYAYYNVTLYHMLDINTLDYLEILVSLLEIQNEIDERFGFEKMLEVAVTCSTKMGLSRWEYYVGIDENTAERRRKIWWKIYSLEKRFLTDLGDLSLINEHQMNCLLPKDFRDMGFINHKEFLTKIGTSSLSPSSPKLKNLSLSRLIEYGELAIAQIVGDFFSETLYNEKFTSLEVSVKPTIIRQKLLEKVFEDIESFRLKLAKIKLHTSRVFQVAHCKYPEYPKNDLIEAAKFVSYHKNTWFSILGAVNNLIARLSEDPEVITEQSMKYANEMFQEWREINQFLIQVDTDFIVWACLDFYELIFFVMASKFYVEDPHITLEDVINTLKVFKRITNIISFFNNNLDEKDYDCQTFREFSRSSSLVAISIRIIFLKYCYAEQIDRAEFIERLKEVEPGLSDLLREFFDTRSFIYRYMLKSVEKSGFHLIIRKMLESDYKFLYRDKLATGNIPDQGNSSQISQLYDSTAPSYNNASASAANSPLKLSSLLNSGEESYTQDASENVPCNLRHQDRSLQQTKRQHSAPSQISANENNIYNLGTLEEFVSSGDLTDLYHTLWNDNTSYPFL
Test: PBM E-score (8-mer binding enrichment) (E-score (-0.5 to 0.5)); higher = stronger / more preferred TF binding; most listed sequences are background and not binding sites
Conditions: protein concentration: 200 nM; construct: GST-full length
Procedure, shortened: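 Each ungapped eight-base word and its reverse complement, pooled, received an E-score from the Universal PBM Analysis Suite. Underlying scans, normalised with masliner, recorded fluorescent anti-GST bound to GST-tagged yeast transcription factors. These were applied at about 100-200 nM to universal all-10-mer Agilent arrays double-stranded by primer extension.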

Sequence	PBM E-score
ACCGAGAT	0.207
ATTTTAAG	-0.146
AAGTAATC	0.0886
CCATGCCA	-0.075
AGTGAAAG	-0.073
CAAGGTCA	-0.294
ATTCTCGC	-0.23
ATGTGTGA	-0.101
ATCTTTCC	0.265
GATACGTA	-0.0921
CCCGTTTC	0.244
CAGGATAG	-0.0459
AGGTGCCC	-0.0255
ATGAACAT	-0.00606
CAAACTAG	-0.168
ATCTTGGC	-0.0804
GAACAGTC	-0.0175
AGAAAGAG	-0.118
ACTCAGGC	-0.138
CCTGTCAA	-0.219
AGCACCCT	-0.284
GTTATGTA	-0.0105
ATCCATTG	0.101
GGCATGGA	0.145
AGCGCCAG	-0.125

Sequence	PBM E-score
CTGAATGC	-0.0711
AACATATC	0.0881
CGGGAGAC	0.335
GCTCGGGA	0.262
AGGAGCTG	0.0427
AAGGGCGA	-0.141
TCCAGGGA	-0.18
CACACTCC	-0.114
ACAGGGCG	0.0375
ATCCCGTG	0.396
CGCTTGAC	-0.00808
CGTATTAC	0.0603
GACCCTAA	-0.0397
GAGTTTAA	0.0984
ATTCAGGG	0.0218
CGCATTGA	0.0763
CTCTGAAC	-0.22
CGGATGAC	0.287
CCGAACAA	0.24
AAGGTTGA	-0.207
CTCAGCAG	-0.145
CGTTCACA	-0.0297
CACCAGGA	-0.0868
TACGGTGA	-0.161
GCCAGGGC	-0.101

Sequence	PBM E-score
CTCTGCCC	0.0172
AAGGACTA	-0.193
AGCGGGCC	0.057
CGCCCTCC	0.0638
ACTTCTTC	0.00457
TCAGAAAA	-0.249
AAGGTCAC	-0.213
CCCCTCTA	-0.265
CCTGCTGA	0.0336
AACTACAG	-0.023
GAGCAAGC	0.0185
AATCTAGT	0.11
AGGGGGAA	-0.265
TAGGGCCA	-0.245
AAAAGTTG	0.00957
TAGGCTGA	-0.189
CGCCAATC	-0.0518
ACCGTCAG	-0.0359
CAAACTCA	0.056
CGCAGGAC	0.0591
CATATATG	-0.135
CGAGGGGC	-0.175
CCCACTCG	0.00152
ATTAGTTC	0.0648
ACCTTTCC	0.242

Sequence	PBM E-score
TAGAGTCA	-0.109
ATGCTCCC	-0.0872
GTTTTCCA	-0.00276
ATCGGACG	0.209
GGTGAAGA	-0.0926
ACTAGCGG	0.0484
CAAGGAAA	0.00732
ATACAGCA	0.00398
TACTTGGA	-0.107
GTGACGGA	0.31
CAGCCGGG	0.229
TATGTTAA	-0.136
GGCCCTGA	-0.183
CGCGACTA	0.101
AAAAGACT	-0.222
AATGTCAT	-0.043
GACGAGAC	-0.0318
CGCTCTAA	-0.162
CAAACATA	-0.155
ATGTTCGG	0.177
ACGTGATC	0.0401
CTATACTA	0.0568
AGACCAAA	-0.0726
GCAATTAA	0.0225
AAGGAGAG	-0.333

Sequence	PBM E-score
AATCTCGC	0.0665
AAGCACAA	-0.0605
CAGCATTA	-0.138
CTAGCCAG	-0.192
GGCTATAC	0.0316
AACTTTTG	0.0403
ACCTAACT	-0.0194
GATGTGGA	0.0996
GAATCCGA	0.273
AGGTGAAC	-0.0422
CTTCGTAC	-0.13
GACCCCCA	-0.218
CCTCAACG	-0.248
ATCATTCC	0.281
CTACAAAC	-0.221
ATCCACTC	0.181
TCGAGCCA	-0.0567
ACCTTTTG	-0.0905
CTCCAGTC	-0.00017
CGGAAACG	0.396
AGTGAGGG	-0.121
ACGGCATA	0.131
AAGGACTC	-0.108
AAACGTAG	-0.175
AACAGTTG	-0.156

Sequence	PBM E-score
ATTAGCGC	0.166
ACCCGCCT	-0.058
TATTCGGA	0.328
GAACCGGA	0.416
CGACCGAC	0.0782
TGGGCGAA	0.0243
AGGATGCA	-0.117
ATCCGTTA	0.364
AGTAATCA	0.134
CAAAGACA	-0.0391
ACGTCCTA	0.154
GAACGCAC	0.133
GCTATCAC	-0.138
GTACGCGA	-0.214
TGGCCACA	0.00252
ACAAATTG	-0.0205
ATATCCGG	0.384
CCTGGTTA	-0.18
TCTCAGCA	-0.228
CGATCGCA	0.0259
AGGTCCGC	0.291
AAAGCTAA	-0.18
GGACCTGA	0.0919
ATGCAGGG	-0.0412
CCACTCGC	-0.0198

Sequence	PBM E-score
CAGTCGGG	0.163
TACGCACA	-0.103
CGCTGGGC	-0.0176
ACAAATAA	-0.0268
AACCCGCT	0.176
ACTGAATA	-0.0651
AGAGACCA	-0.201
AACGACTA	-0.171
TCCGGCAA	0.356
CGAGGTAA	0.0804
CTTAGGTA	-0.0904
CAATCACG	0.147
TGTAAGAA	-0.00235
AATAATGG	-0.0232
TAACTAGA	0.0866
CGGTTATC	0.129
GGTAGATA	0.0651
ATAAACAG	-0.0846
ACATACGC	0.0424
AAATACTT	0.13
GGCGTAAC	-0.262
ATGATACA	-0.0776
